From the BET-seq Pho4 binding data (Le et al. 2018) come the findings set out here.

This is one part of the list. These are noisy estimates, calculated here from bound and input reads.

For the experiment, the target named is T1, Pho4 (S. cerevisiae) (UniProt P07270).
T1 sequence: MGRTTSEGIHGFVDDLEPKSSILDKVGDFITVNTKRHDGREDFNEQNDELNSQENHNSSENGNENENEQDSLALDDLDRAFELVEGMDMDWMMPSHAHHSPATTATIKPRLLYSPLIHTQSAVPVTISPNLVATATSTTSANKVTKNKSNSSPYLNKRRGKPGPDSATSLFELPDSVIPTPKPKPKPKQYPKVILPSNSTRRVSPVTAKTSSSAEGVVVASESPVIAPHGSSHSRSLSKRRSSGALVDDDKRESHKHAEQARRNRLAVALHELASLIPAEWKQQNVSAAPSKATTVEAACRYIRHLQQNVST
The experiment is described as follows: relative binding free energy (BET-seq); higher = weaker binding. The settings on record: reference: library average.
As to GTCTGCACGTGTCGTG, the “relative binding free energy” value came out at 0.09 kcal/mol. The figure for TCATGCACGTGTGGGA is -0.09 kcal/mol; for GCTATCACGTGGTATG it is 0.06 kcal/mol.

As for ACTTGCACGTGGTTGC, the “relative binding free energy” value worked out at 0.04 kcal/mol. For the sequence AGTGTCACGTGTTCAT, the “relative binding free energy” value came to 0.07 kcal/mol. The figure for TGTAGCACGTGATGGA is 0.15 kcal/mol; for CATGTCACGTGTTTAG it is 0.07 kcal/mol. As to TTTTCCACGTGATTGG, the “relative binding free energy” value stood at 0.22 kcal/mol. With GATGTCACGTGAGGCA, the “relative binding free energy” value was found to be 0.3 kcal/mol. As for GCGGTCACGTGGACGG, the figure is 0.13 kcal/mol. As for CTGTACACGTGGAGTA, the figure is 0.11 kcal/mol; as for TAGTGCACGTGTGGAC, 0.2 kcal/mol.

Turning to CTTTACACGTGTGTAA, the “relative binding free energy” value was determined as 0.06 kcal/mol. With ATGGCCACGTGATAGG, the “relative binding free energy” value came to 0.03 kcal/mol. The figure for AATATCACGTGAATGG is 0.33 kcal/mol; for CTAGGCACGTGGAGGT it is -0.12 kcal/mol. The figure for ACTGACACGTGTGGGT is 0.08 kcal/mol; for TATTTCACGTGGTAGT it is 0.13 kcal/mol; for ATTGCCACGTGTGATT it is 0.04 kcal/mol. As for TGGTTCACGTGACCGT, the figure is 0.34 kcal/mol. With TATGGCACGTGAAGTA, the “relative binding free energy” value turned out to be 0.2 kcal/mol. For ATGTGCACGTGTAGCG, the “relative binding free energy” value was -0.01 kcal/mol.

On to ACTATCACGTGGGGGT, for which the “relative binding free energy” value turned out to be 0.02 kcal/mol. The figure for TCTAACACGTGGGTGC is 0.02 kcal/mol; for CTAGGCACGTGGAGAT it is -0.05 kcal/mol.

For the sequence GGAGGCACGTGTATGG, the “relative binding free energy” value was -0.07 kcal/mol.

Take CAGGGCACGTGAGTTA: the “relative binding free energy” value came to 0.29 kcal/mol. As for GTGGTCACGTGCTTGC, the figure is 0.12 kcal/mol. The figure for AGTTACACGTGCTGAG is 0.15 kcal/mol. In the case of AAAGGCACGTGGGTTC, the “relative binding free energy” value is -0.03 kcal/mol.

Take TATGGCACGTGATGAA: the “relative binding free energy” value is -0.01 kcal/mol. In the case of GTGAGCACGTGTAAAT, the “relative binding free energy” value came out at 0.13 kcal/mol. As for ATTTGCACGTGATGTA, the figure is 0.02 kcal/mol; as for TTGAACACGTGGTTGA, -0.13 kcal/mol. As for AGTGGCACGTGTATGT, the figure is -0.04 kcal/mol; as for GTTAACACGTGCGTTG, -0.14 kcal/mol. The figure for TGATTCACGTGTTTCT is 0.23 kcal/mol; for TTGCACACGTGTGTAA it is 0.09 kcal/mol; for AGGACCACGTGGTTTT it is 0.04 kcal/mol. In the case of TGTGACACGTGTAAAT, the “relative binding free energy” value amounted to 0.13 kcal/mol. As for TTCTGCACGTGACGTT, the figure is 0.19 kcal/mol; as for TGAACCACGTGGTGAT, 0.06 kcal/mol; as for GTCTTCACGTGTCGGG, 0.19 kcal/mol. As for CGGGTCACGTGGTATT, the figure is -0.01 kcal/mol; as for TATGCCACGTGGTGGG, -0.18 kcal/mol.

As for GGTATCACGTGGCGTA, the “relative binding free energy” value was determined as 0.09 kcal/mol. As for TACGTCACGTGAGTAG, the figure is 0.32 kcal/mol. With AGCGGCACGTGGGGTC, the “relative binding free energy” value is -0.19 kcal/mol. The figure for TGTATCACGTGCTTGT is 0.01 kcal/mol; for TGACGCACGTGTGCGG it is -0.06 kcal/mol; for CGTTTCACGTGAGGCT it is 0.4 kcal/mol.

With AGGTCCACGTGGGATA, the “relative binding free energy” value is -0.04 kcal/mol. The figure for GAAAGCACGTGTGGAG is -0.08 kcal/mol; for GTAAACACGTGCGGTG it is 0 kcal/mol; for TGAGTCACGTGTAGGC it is 0.14 kcal/mol.

As for GATAACACGTGTTGTG, the “relative binding free energy” value turned out to be 0 kcal/mol. On to TATACCACGTGGTTGA, for which the “relative binding free energy” value was -0.05 kcal/mol. For GTTTACACGTGAAGCT, the “relative binding free energy” value was determined as 0.3 kcal/mol. The figure for GGTTACACGTGGTTAC is 0.11 kcal/mol; for GTGTGCACGTGCTTTA it is -0.17 kcal/mol. As for GTATCCACGTGTTGTG, the “relative binding free energy” value worked out at 0.02 kcal/mol. As for TGTGGCACGTGCGATT, the figure is -0.11 kcal/mol.

Regarding CAGGGCACGTGGCGGT, the “relative binding free energy” value was -0.2 kcal/mol.

With AAGTGCACGTGAAGGG, the “relative binding free energy” value is 0.14 kcal/mol. As for TAAGACACGTGGGTAG, the figure is -0.11 kcal/mol; as for GAGAACACGTGGCTGG, 0.13 kcal/mol.

Take GGACACACGTGTGAGG: the “relative binding free energy” value stood at 0.07 kcal/mol. As for TAACGCACGTGTTGTG, the figure is -0.17 kcal/mol. The figure for TTCGCCACGTGGGGGC is -0.17 kcal/mol; for CGTTTCACGTGGGGTA it is 0.19 kcal/mol; for TGTTTCACGTGCTGTG it is 0.2 kcal/mol. The figure for AGGGGCACGTGGCAAG is -0.19 kcal/mol; for GTTGACACGTGACGAG it is 0.24 kcal/mol.

As to AGGGTCACGTGAGTTG, the “relative binding free energy” value worked out at 0.37 kcal/mol. For the sequence AAGGACACGTGGAGTT, the “relative binding free energy” value was -0.07 kcal/mol.

TGGGTCACGTGCTCAT: the “relative binding free energy” value was found to be 0.14 kcal/mol. For the sequence AGCTGCACGTGTGGTT, the “relative binding free energy” value was -0.07 kcal/mol.

Consider TCAAACACGTGTGTTG, for which the “relative binding free energy” value amounted to 0.06 kcal/mol. As for GTTTACACGTGTTACG, the figure is 0.26 kcal/mol. As for GCTGTCACGTGTTGCT, the figure is 0.13 kcal/mol. As for TCTTACACGTGTTATG, the figure is 0.13 kcal/mol; as for TTTGGCACGTGGTACG, -0.1 kcal/mol; as for GATTGCACGTGGGTAC, -0.01 kcal/mol.

Consider AAAGGCACGTGCTGGT, for which the “relative binding free energy” value was -0.08 kcal/mol. As for AGGTACACGTGGTACG, the figure is 0.05 kcal/mol; as for GGGTACACGTGTGATA, 0.26 kcal/mol; as for GACGGCACGTGGAGTG, -0.06 kcal/mol.

For the sequence TGTGGCACGTGTAATC, the “relative binding free energy” value amounted to 0.04 kcal/mol. The figure for GGTTCCACGTGTTTAT is 0.19 kcal/mol. As to TTGGACACGTGAGTTG, the “relative binding free energy” value was 0.28 kcal/mol.

Turning to TTTCTCACGTGTAGGG, the “relative binding free energy” value was 0.21 kcal/mol. The figure for AAGATCACGTGGTGCG is -0.06 kcal/mol. Turning to CGGGGCACGTGACGGA, the “relative binding free energy” value was 0.05 kcal/mol. The figure for TGATTCACGTGGGGTT is 0.28 kcal/mol. In the case of GGGTTCACGTGCGGTG, the “relative binding free energy” value was determined as 0.42 kcal/mol. The figure for TCTGACACGTGTTTGT is 0.04 kcal/mol.

Consider TTAGGCACGTGATTAG, for which the “relative binding free energy” value was -0.05 kcal/mol. TTGTACACGTGGGTAC: the “relative binding free energy” value amounted to 0.02 kcal/mol. As for TTTGCCACGTGGATGG, the figure is -0.03 kcal/mol; as for TGTCGCACGTGGGACG, -0.14 kcal/mol; as for CTAGTCACGTGTATTT, 0.01 kcal/mol. As for AGTGACACGTGGGTCT, the figure is -0.23 kcal/mol; as for AGTGGCACGTGTGAAA, -0.06 kcal/mol. For the sequence GTGACCACGTGGTGGT, the “relative binding free energy” value was -0.11 kcal/mol. As for TTTAGCACGTGGAGGG, the figure is -0.09 kcal/mol.

Take ACAGACACGTGGTGGG: the “relative binding free energy” value is -0.11 kcal/mol. As for GGATGCACGTGGGTGG, the figure is -0.11 kcal/mol; as for TATGGCACGTGAGATA, 0 kcal/mol. As to GAGGCCACGTGTGTGG, the “relative binding free energy” value was 0.12 kcal/mol. As for TTAGGCACGTGTGTCC, the figure is 0.05 kcal/mol. The figure for CGTTGCACGTGTTGGC is -0.04 kcal/mol. The figure for GTGATCACGTGTGTAA is 0.23 kcal/mol; for TCAGCCACGTGGTGTA it is 0.03 kcal/mol. As to GCGGGCACGTGTTGAG, the “relative binding free energy” value came to 0.04 kcal/mol.

As to GATAGCACGTGATTAG, the “relative binding free energy” value was 0.2 kcal/mol.
